# In paper PMC4336329 (PLoS ONE, 2015):
# Hit rate of the full screen: of about 310,000 compounds, about 14,000 (4.5%) showed an effect of 50% or more. Effects have a minus sign here. The list shows a part of the results.
# Target: human ether-à-go-go-related gene (hERG) potassium channel (human, UniProt Q12809)
# Assay: primary screen, population patch clamp on CHO cells stably expressing hERG
# 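Note: peak tail current of the secondary pulse compared with the same well before compound.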
# human ether-à-go-go-related gene (hERG) potassium channel, sequence (Q12809 whole entry, looked up): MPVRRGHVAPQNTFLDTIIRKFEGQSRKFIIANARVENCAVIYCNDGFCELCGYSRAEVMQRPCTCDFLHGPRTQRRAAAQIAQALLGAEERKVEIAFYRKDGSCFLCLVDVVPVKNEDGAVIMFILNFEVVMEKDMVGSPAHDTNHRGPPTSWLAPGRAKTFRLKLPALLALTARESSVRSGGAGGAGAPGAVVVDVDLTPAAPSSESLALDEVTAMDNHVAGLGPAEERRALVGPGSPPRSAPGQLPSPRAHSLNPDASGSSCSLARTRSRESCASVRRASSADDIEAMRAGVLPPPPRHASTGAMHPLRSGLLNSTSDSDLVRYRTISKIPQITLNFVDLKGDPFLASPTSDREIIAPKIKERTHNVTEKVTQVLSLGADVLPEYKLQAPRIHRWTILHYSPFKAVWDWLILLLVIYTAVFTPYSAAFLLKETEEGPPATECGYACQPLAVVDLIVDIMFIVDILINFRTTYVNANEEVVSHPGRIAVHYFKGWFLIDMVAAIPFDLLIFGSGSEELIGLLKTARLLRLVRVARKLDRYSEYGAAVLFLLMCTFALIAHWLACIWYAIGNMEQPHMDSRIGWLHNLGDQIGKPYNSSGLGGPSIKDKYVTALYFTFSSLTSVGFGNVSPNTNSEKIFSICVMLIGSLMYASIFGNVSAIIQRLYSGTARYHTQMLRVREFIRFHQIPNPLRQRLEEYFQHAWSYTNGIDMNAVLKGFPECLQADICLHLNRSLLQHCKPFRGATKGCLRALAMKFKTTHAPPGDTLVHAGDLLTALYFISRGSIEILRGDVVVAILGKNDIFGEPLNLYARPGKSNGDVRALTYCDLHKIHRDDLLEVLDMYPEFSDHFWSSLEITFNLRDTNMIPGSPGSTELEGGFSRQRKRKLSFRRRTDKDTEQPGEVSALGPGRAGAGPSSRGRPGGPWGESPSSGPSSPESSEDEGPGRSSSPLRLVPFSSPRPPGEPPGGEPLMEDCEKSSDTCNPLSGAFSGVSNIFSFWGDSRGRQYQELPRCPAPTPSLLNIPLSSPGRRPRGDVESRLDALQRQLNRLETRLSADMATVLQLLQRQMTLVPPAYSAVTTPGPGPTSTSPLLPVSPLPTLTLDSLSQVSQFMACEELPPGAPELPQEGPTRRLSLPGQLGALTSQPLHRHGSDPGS
row,Structure (SMILES),"hERG current change (%, negative = inhibition) at 10uM [%]"
1,COCCCn1c(SCC(=O)OC2CCCCC2)nnc1-c1ccco1,-56
2,O=C(C1=C(O)C(=O)N(CCOCCO)C1c1ccccn1)c1cccs1 (centres unmarked),14
3,Cc1ccc(N2NC3(CCN(C(N)=O)CC3)NC2=O)cc1,19.3
4,COC(=O)c1ccc(N2CCN(C)CC2)c(NC(=O)COc2ccc(OC)cc2)c1,-53.5
5,CCOc1ccccc1C(C(=O)NCCOC)N(CCOC)C(=O)Cn1nnc2ccccc21 (centres unmarked),18.5
6,Cn1c(NCc2cccs2)nc2ccccc21,-11.1
7,COc1ccc(CS(=O)(=O)CC(C)(O)c2ccc(Cl)cc2)cc1 (centres unmarked),-0.035
8,COc1ccc(C(=O)/C=C/c2cc(C(=O)O)cc3c2OCOC3)c(O)c1,-0.565
9,O=C(N/N=C/c1ccc(-n2ccnc2)cc1)c1cccs1,-34.5
10,O=C(Nc1ccccc1Cl)N1CCN(c2ccccn2)CC1,-15.3
11,OCCNC(=S)Nc1ccc(Cl)c(Cl)c1,-0.451
12,COc1ccc(OC)c(S(=O)(=O)Nc2cnc3ccccc3c2)c1,0.0276
13,COc1cccc(CNS(=O)(=O)c2cccc(S(=O)(=O)N3CCOCC3)c2)c1,5.15
14,CC(C)NC(=O)CSc1nc2ccccc2n1-c1ccccc1,-7.15
15,CCn1cc(C(C)(C)C)c(C#N)c1NC(C)=O,-0.576
16,CCN1C(=O)c2ccc(C(=O)NCc3ccc4c(c3)OCO4)cc2C1=O,-1.11
17,O=C(C1=C[C@H](c2ccccc2)C[C@H](OCc2ccc(CO)cc2)O1)N1CCN(Cc2ccc3c(c2)OCO3)CC1,-39.5
18,COc1ccc(Cc2c(C)nc(N)nc2Cl)cc1,12.4
19,CN(C)S(=O)(=O)c1ccc(N2CCN(S(=O)(=O)c3ccc(F)cc3)CC2)c(Cl)c1,7.68
20,CC(C)Nc1nc(Oc2ccc(Cl)cc2Cl)cc(C(F)(F)F)n1,8.11
21,O=c1oc2ccccc2cc1-c1cn2ccccc2n1,11.9
22,Nc1c(C(=O)O)nnn1Cc1ccccc1,8.99
23,CCCc1nc2c(o1)CC(CC(C)SCC)CC2=O (centres unmarked),-27
24,COC(=O)/C=C/C(=O)Nc1cccnc1,14.2
25,Cc1ccnc(NCn2nnc3ccccc32)c1,7.69
26,O=C(COC(=O)c1ccc(O)cc1)NCC1CCCO1 (centres unmarked),16.9
